# Results from the supplement of paper PMC8728848.
# The list shows a part of the results.
# B1: SP16664B-bot-474-25-474 (Bacteroides ovatus) (protein)
# chain: CEEDIEIGNKIDESSYLASTQLSGLLLDENTNKNSSVIELRNNEYSTNVVFRLSKLPQKGVDVQIAVEESYAAIYNTIHETDFEVFPAANVKIANNGTFVLAPDDKVTPSVKVTLTAFDGMEEDKTYIVPLTVTSSTEGVTFTETSKHMVLLVQDYRNKPNTNKGEDAVQTVLYFEVNDTNPLNALEFLTESGKYFFDHIVLFAANINWDPEKQRVYLANNENVQFLLDNNDKYLQPLRKAGMKIIISILGNHDEAGVAQLSDMGAREFARELAAYCRAYNLDGVAFDDEYSNSPDLSNPWLASPSAYAGSRLMYECKAVMPEKIVSLYNLGNMYSSSLQVIDGIEPGQYCDYAVADYGGAAGPGTGMTLKQCAGMSIELRRGSGNSSESTARSRKEAGYGYYMFFALDPSLYGSQVYRCQSVCKGLYDETLVYPSYYYKKNSTEREAIN
# Experiments:
# Assay in all cases: glycan array binding signal (z-score within array); higher = stronger binding
# Settings in all cases: glycan notation: IUPAC condensed, linker removed
# Fuc(a1-2)Gal = target: Fuc(a1-2)Gal
# In short: (§1)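 The Consortium for Functional Glycomics database supplied 3228 glycan arrays, of which those lacking an available protein sequence were dropped. The binding signal, a within-array Z-score, was averaged across arrays of the same protein sequence and across linkers. Negative scores can be read as non-binding.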
# Fuc(a1-2)Gal(b1-3)GalNAc = target: Fuc(a1-2)Gal(b1-3)GalNAc
# In short: as §1
# [1] = target: Fuc(a1-2)Gal(b1-3)GalNAc(a1-3)[Fuc(a1-2)]Gal(b1-4)Glc
# In short: as §1
# [2] = target: Fuc(a1-2)Gal(b1-3)GalNAc(a1-3)[Fuc(a1-2)]Gal(b1-4)GlcNAc
# In short: as §1
# [3] = target: Fuc(a1-2)Gal(b1-3)GalNAc(b1-3)Gal
# In short: as §1
# [4] = target: Fuc(a1-2)Gal(b1-3)GalNAc(b1-3)Gal(a1-4)Gal(b1-4)Glc
# In short: as §1
# [5] = target: Fuc(a1-2)Gal(b1-3)GalNAc(b1-4)[Neu5Ac(a2-3)]Gal(b1-4)Glc
# In short: as §1
# Fuc(a1-2)Gal(b1-3)GlcNAc = target: Fuc(a1-2)Gal(b1-3)GlcNAc
# In short: as §1
# [6] = target: Fuc(a1-2)Gal(b1-3)GlcNAc(b1-2)Man(a1-3)[Fuc(a1-2)Gal(b1-3)GlcNAc(b1-2)Man(a1-6)]Man(b1-4)GlcNAc(b1-4)GlcNAc
# In short: as §1
# [7] = target: Fuc(a1-2)Gal(b1-3)GlcNAc(b1-2)Man(a1-3)[Fuc(a1-2)Gal(b1-3)GlcNAc(b1-2)Man(a1-6)]Man(b1-4)GlcNAc(b1-4)[Fuc(a1-6)]GlcNAc
# In short: as §1
# [8] = target: Fuc(a1-2)Gal(b1-3)GlcNAc(b1-3)Gal(b1-4)Glc
# In short: as §1
# [9] = target: Fuc(a1-2)Gal(b1-3)GlcNAc(b1-3)GalNAc
# In short: as §1
# [10] = target: Fuc(a1-2)Gal(b1-3)GlcNAc(b1-3)[Fuc(a1-2)Gal(b1-3)GlcNAc(b1-6)]GalNAc
# In short: as §1
# [11] = target: Fuc(a1-2)Gal(b1-3)GlcNAc(b1-3)[Gal(b1-4)GlcNAc(b1-6)]Gal(b1-4)Glc
# In short: as §1
# [12] = target: Fuc(a1-2)Gal(b1-3)GlcNAc(b1-3)[Neu5Ac(a2-6)Gal(b1-4)GlcNAc(b1-6)]Gal(b1-4)Glc
# In short: as §1
# [13] = target: Fuc(a1-2)Gal(b1-3)GlcNAc6S
# In short: as §1
# [14] = target: Fuc(a1-2)Gal(b1-3)[Fuc(a1-4)]GlcNAc
# In short: as §1
# [15] = target: Fuc(a1-2)Gal(b1-3)[Fuc(a1-4)]GlcNAc(b1-2)Man(a1-3)[Fuc(a1-2)Gal(b1-3)[Fuc(a1-4)]GlcNAc(b1-2)Man(a1-3)]Man(b1-4)GlcNAc(b1-4)GlcNAc
# In short: as §1
# [16] = target: Fuc(a1-2)Gal(b1-3)[Fuc(a1-4)]GlcNAc(b1-2)Man(a1-3)[Fuc(a1-2)Gal(b1-3)[Fuc(a1-4)]GlcNAc(b1-2)Man(a1-6)]Man(b1-4)GlcNAc(b1-4)[Fuc(a1-6)]GlcNAc(b1-4)[Fuc(a1-6)]GlcNAc
# In short: as §1
# [17] = target: Fuc(a1-2)Gal(b1-3)[Fuc(a1-4)]GlcNAc(b1-3)[Fuc(a1-3)[Gal(b1-4)]GlcNAc(b1-6)]Gal(b1-4)Glc
# In short: as §1
# [18] = target: Fuc(a1-2)Gal(b1-3)[Fuc(a1-4)]GlcNAc(b1-3)[Gal(b1-4)GlcNAc(b1-6)]Gal(b1-4)Glc
# In short: as §1
# [19] = target: Fuc(a1-2)Gal(b1-4)Fuc(a1-3)]GlcNAc(b1-2)Man(a1-3)[Fuc(a1-2)Gal(b1-4)[Fuc(a1-3)]GlcNAc(b1-2)Man(a1-6)]Man(b1-4)GlcNAc(b1-4)GlcNAc
# In short: as §1
# Fuc(a1-2)Gal(b1-4)Glc = target: Fuc(a1-2)Gal(b1-4)Glc
# In short: as §1
# Fuc(a1-2)Gal(b1-4)Glc6S = target: Fuc(a1-2)Gal(b1-4)Glc6S
# In short: as §1
# Fuc(a1-2)Gal(b1-4)GlcNAc = target: Fuc(a1-2)Gal(b1-4)GlcNAc
# In short: as §1
# [20] = target: Fuc(a1-2)Gal(b1-4)GlcNAc(b1-2)Man
# In short: as §1
# [21] = target: Fuc(a1-2)Gal(b1-4)GlcNAc(b1-2)Man(a1-3)[Fuc(a1-2)Gal(b1-4)GlcNAc(b1-2)Man(a1-6)]Man(b1-4)GlcNAc(b1-4)GlcNAc
# In short: as §1
# [22] = target: Fuc(a1-2)Gal(b1-4)GlcNAc(b1-2)Man(a1-3)[Fuc(a1-2)Gal(b1-4)GlcNAc(b1-2)Man(a1-6)]Man(b1-4)GlcNAc(b1-4)[Fuc(a1-6)]GlcNAc
# In short: as §1
# [23] = target: Fuc(a1-2)Gal(b1-4)GlcNAc(b1-2)[Fuc(a1-2)Gal(b1-4)GlcNAc(b1-4)]Man(a1-3)[Fuc(a1-2)Gal(b1-4)GlcNAc(b1-2)Man(a1-6)]Man(b1-4)GlcNAc(b1-4)GlcNAc
# In short: as §1
# [24] = target: Fuc(a1-2)Gal(b1-4)GlcNAc(b1-3)Gal(b1-4)GlcNAc
# In short: as §1
binder,measurement,setting,value
B1,glycan array binding signal (z-score),Fuc(a1-2)Gal,0.062
same,glycan array binding signal (z-score),Fuc(a1-2)Gal(b1-3)GalNAc,-0.171
same,glycan array binding signal (z-score),[1],-0.353
same,glycan array binding signal (z-score),[2],-0.363
same,glycan array binding signal (z-score),[3],-0.081
same,glycan array binding signal (z-score),[4],-0.244
same,glycan array binding signal (z-score),[5],0.469
same,glycan array binding signal (z-score),Fuc(a1-2)Gal(b1-3)GlcNAc,-0.283
same,glycan array binding signal (z-score),[6],0.673
same,glycan array binding signal (z-score),[7],0.033
same,glycan array binding signal (z-score),[8],-0.215
same,glycan array binding signal (z-score),[9],-0.226
same,glycan array binding signal (z-score),[10],0.033
same,glycan array binding signal (z-score),[11],-0.264
same,glycan array binding signal (z-score),[12],0.002
same,glycan array binding signal (z-score),[13],0.195
same,glycan array binding signal (z-score),[14],-0.162
same,glycan array binding signal (z-score),[15],-0.154
same,glycan array binding signal (z-score),[16],-0.081
same,glycan array binding signal (z-score),[17],-0.35
same,glycan array binding signal (z-score),[18],-0.652
same,glycan array binding signal (z-score),[19],0.156
same,glycan array binding signal (z-score),Fuc(a1-2)Gal(b1-4)Glc,0.16
same,glycan array binding signal (z-score),Fuc(a1-2)Gal(b1-4)Glc6S,0.039
same,glycan array binding signal (z-score),Fuc(a1-2)Gal(b1-4)GlcNAc,-0.314
same,glycan array binding signal (z-score),[20],-0.105
same,glycan array binding signal (z-score),[21],0.649
same,glycan array binding signal (z-score),[22],0.155
same,glycan array binding signal (z-score),[23],-0.174
same,glycan array binding signal (z-score),[24],-0.175
